Results published in patent publication US20250270341A1 (Alector, published 2025).

T1: huCD98hc ECD Avi-His (human, UniProt P08195 105-529)
T1 construct: biotinylated on the Avi tag where captured on streptavidin; also called Human CD98-AVI-His; Human CD98hc-AVI-His
T1 sequence: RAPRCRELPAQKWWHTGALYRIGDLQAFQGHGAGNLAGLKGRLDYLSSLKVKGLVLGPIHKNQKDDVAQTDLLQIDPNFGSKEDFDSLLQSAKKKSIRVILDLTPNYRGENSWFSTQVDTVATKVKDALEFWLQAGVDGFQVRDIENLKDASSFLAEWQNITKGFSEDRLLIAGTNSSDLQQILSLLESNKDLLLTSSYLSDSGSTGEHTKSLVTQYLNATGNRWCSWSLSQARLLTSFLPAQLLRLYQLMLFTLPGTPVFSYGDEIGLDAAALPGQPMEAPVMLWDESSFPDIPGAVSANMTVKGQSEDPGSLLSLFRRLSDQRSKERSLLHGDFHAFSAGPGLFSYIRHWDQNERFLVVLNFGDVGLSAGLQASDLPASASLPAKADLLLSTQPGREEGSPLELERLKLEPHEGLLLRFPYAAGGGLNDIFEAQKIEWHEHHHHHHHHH

T2: Cyno CD98hc ECD Avi-His (cynomolgus macaque, UniProt P08195 105-529 (human entry))
T2 construct: biotinylated on the Avi tag where captured on streptavidin; also called Cyno CD98-AVI-His; Cyno CD98hc-AVI-His
T2 chain: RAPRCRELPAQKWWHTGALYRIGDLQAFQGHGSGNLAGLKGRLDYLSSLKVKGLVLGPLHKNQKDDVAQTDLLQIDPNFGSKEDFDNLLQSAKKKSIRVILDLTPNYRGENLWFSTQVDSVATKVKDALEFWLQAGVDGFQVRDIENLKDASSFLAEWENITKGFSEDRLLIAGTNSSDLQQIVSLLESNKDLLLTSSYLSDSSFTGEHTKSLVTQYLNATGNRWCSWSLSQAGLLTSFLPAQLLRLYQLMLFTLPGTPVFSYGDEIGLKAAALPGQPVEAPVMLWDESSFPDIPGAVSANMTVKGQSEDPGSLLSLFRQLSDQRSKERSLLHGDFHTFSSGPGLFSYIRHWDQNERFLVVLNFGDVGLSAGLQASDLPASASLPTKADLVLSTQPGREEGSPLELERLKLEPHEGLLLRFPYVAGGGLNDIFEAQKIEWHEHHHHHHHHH

B1: CD98hc.05.126 (2+1 bispecific antibody) (bispecific antibody)
heavy 1: EVRLLESGGGLVQPGGSLRLSCAASGFTFSNYAMGWVRQAPGKGLEWVSAISGSGGSTYYADSVKGRFTTSRDDSKNALYLQMNSLRAEDTAVYYCARGGPGWYAADVWGQGTTVTVSSASTKGPSVFPLAPSSKSTSGGTAALGCLVKDYFPEPVTVSWNSGALTSGVHTFPAVLQSSGLYSLSSVVTVPSSSLGTQTYICNVNHKPSNTKVDKKV[here human IgG1 Fc with changes without letters]GGGGSGGGGSGGGGSEVKLVESGGNLVQPGGSLKLSCAASGFTFSGYPMSWVRRTPDKRLEWVAYIGSGGDSTYYPYAVKGRFTISRDNAKNTLYLQMNSLKSEDSAMYYCARQYDNYPFFDYWGQGTTLTVSSGGSEGKSSGSGSESKSTGGSDFVMSQSPSSLTVSVGAKVIMSCKSSQSLLYSGNQKNYLAWYQQKPGQSPKLLIYWASTRESGVPDRFTGSGSGTDFTLTISSVKAEDLAVYYCQQYYTYPPTFGAGTKLEIK
heavy 2: EVRLLESGGGLVQPGGSLRLSCAASGFTFSNYAMGWVRQAPGKGLEWVSAISGSGGSTYYADSVKGRFTTSRDDSKNALYLQMNSLRAEDTAVYYCARGGPGWYAADVWGQGTTVTVSS[here human IgG1 constant region with changes without letters]
light: DIQMTQSPSSLSASVGDRVTITCRASQSISSYLNWYQQKPGKAPKLLIYAASSLQSGVPSRFSGSGSGTDFTLTISSLQPEDFATYYCQQADLPAFAFGGGTKVEIKRTVAAPSVFIFPPSDEQLKSGTASVVCLLNNFYPREAKVQWKVDNALQSGNSQESVTEQDSKDSTYSLSSTLTLSKADYEKHKVYACEVTHQGLSSPVTKSFNRGEC
B2: CD98hc.05.007 (2+1 bispecific antibody) (bispecific antibody)
heavy 1: EVRLLESGGGLVQPGGSLRLSCAASGFTFSNYAMGWVRQAPGKGLEWVSAISGSGGSTYYADSVKGRFTTSRDDSKNALYLQMNSLRAEDTAVYYCARGGPGWYAADVWGQGTTVTVSSASTKGPSVFPLAPSSKSTSGGTAALGCLVKDYFPEPVTVSWNSGALTSGVHTFPAVLQSSGLYSLSSVVTVPSSSLGTQTYICNVNHKPSNTKVDKKV[here human IgG1 Fc with changes without letters]GGGGSGGGGSGGGGSDVKLVESGGDLVKPGGSLKLSCAASGFTFSSYSMSWVRQTPEKRLEWVATITSGGSYTYFPDSVKGRFTISRDNAKNTLYLQVSNLKSEDTAMYYCTRGPSFGNYLDYWGQGTTLTVSSGGSEGKSSGSGSESKSTGGSDILMTQSPSSMSASLGDTVSITCHASQGISSNIGWLQQKPGKSFKGLIYRGTNLEDGVPSRFSGSGSGADYSLTISSLESEDFADYYCVQYAHFPYTFGGGTKLEIK
heavy 2: EVRLLESGGGLVQPGGSLRLSCAASGFTFSNYAMGWVRQAPGKGLEWVSAISGSGGSTYYADSVKGRFTTSRDDSKNALYLQMNSLRAEDTAVYYCARGGPGWYAADVWGQGTTVTVSS[here human IgG1 constant region with changes without letters]
light: DIQMTQSPSSLSASVGDRVTITCRASQSISSYLNWYQQKPGKAPKLLIYAASSLQSGVPSRFSGSGSGTDFTLTISSLQPEDFATYYCQQADLPAFAFGGGTKVEIKRTVAAPSVFIFPPSDEQLKSGTASVVCLLNNFYPREAKVQWKVDNALQSGNSQESVTEQDSKDSTYSLSSTLTLSKADYEKHKVYACEVTHQGLSSPVTKSFNRGEC
B3: CD98hc.05.052 (2+1 bispecific antibody) (bispecific antibody)
heavy 1: EVRLLESGGGLVQPGGSLRLSCAASGFTFSNYAMGWVRQAPGKGLEWVSAISGSGGSTYYADSVKGRFTTSRDDSKNALYLQMNSLRAEDTAVYYCARGGPGWYAADVWGQGTTVTVSSASTKGPSVFPLAPSSKSTSGGTAALGCLVKDYFPEPVTVSWNSGALTSGVHTFPAVLQSSGLYSLSSVVTVPSSSLGTQTYICNVNHKPSNTKVDKKV[here human IgG1 Fc with changes without letters]GGGGSGGGGSGGGGSDMQLQESGPGLVKPSQSLSLTCTVTGYSITSDYAWNWIRQFPGNKLEWMGFISYSGTTSYTPSLKRRISITRDTSKNQFFLRLNSVTPEDTATYYCAKSAFYGNVWFAYWGQGTLVTVSSGGSEGKSSGSGSESKSTGGSQFVLTQSPAIMSASPGEKVTISCSASSSVSYMFWYQQKPGSSPKPWISHTSNLASGVPARFSGSGSGTSYSLTISNMEAEDAATYYCQQFHDYPWTFGGGTKLEIK
heavy 2: EVRLLESGGGLVQPGGSLRLSCAASGFTFSNYAMGWVRQAPGKGLEWVSAISGSGGSTYYADSVKGRFTTSRDDSKNALYLQMNSLRAEDTAVYYCARGGPGWYAADVWGQGTTVTVSS[here human IgG1 constant region with changes without letters]
light: DIQMTQSPSSLSASVGDRVTITCRASQSISSYLNWYQQKPGKAPKLLIYAASSLQSGVPSRFSGSGSGTDFTLTISSLQPEDFATYYCQQADLPAFAFGGGTKVEIKRTVAAPSVFIFPPSDEQLKSGTASVVCLLNNFYPREAKVQWKVDNALQSGNSQESVTEQDSKDSTYSLSSTLTLSKADYEKHKVYACEVTHQGLSSPVTKSFNRGEC
B4: CD98hc.05.144 (2+1 bispecific antibody) (bispecific antibody)
heavy 1: EVRLLESGGGLVQPGGSLRLSCAASGFTFSNYAMGWVRQAPGKGLEWVSAISGSGGSTYYADSVKGRFTTSRDDSKNALYLQMNSLRAEDTAVYYCARGGPGWYAADVWGQGTTVTVSSASTKGPSVFPLAPSSKSTSGGTAALGCLVKDYFPEPVTVSWNSGALTSGVHTFPAVLQSSGLYSLSSVVTVPSSSLGTQTYICNVNHKPSNTKVDKKV[here human IgG1 Fc with changes without letters]GGGGSGGGGSGGGGSEVQLVESGGALVKPGGSLKLSCAASGFAFSSFDMSWVRQTPERRVEWVAYISGGGGSTYHPDTVKGRFAISRDNAKNTLYLHMNSLKSEDTAMYYCVRQGSRPWFAYWGQGTLVTVSSGGSEGKSSGSGSESKSTGGSDFVMSQSPSSLTVSVGEKVTMTCKSSQSLLYSYTQKNYLAWYQQKPGQSPNLLIYWASTRESGVPDRFAGSGSGTDFTLTISSVEAEDLAVYYCQQYSNYPPTFGGGTKLEIK
heavy 2: EVRLLESGGGLVQPGGSLRLSCAASGFTFSNYAMGWVRQAPGKGLEWVSAISGSGGSTYYADSVKGRFTTSRDDSKNALYLQMNSLRAEDTAVYYCARGGPGWYAADVWGQGTTVTVSS[here human IgG1 constant region with changes without letters]
light: DIQMTQSPSSLSASVGDRVTITCRASQSISSYLNWYQQKPGKAPKLLIYAASSLQSGVPSRFSGSGSGTDFTLTISSLQPEDFATYYCQQADLPAFAFGGGTKVEIKRTVAAPSVFIFPPSDEQLKSGTASVVCLLNNFYPREAKVQWKVDNALQSGNSQESVTEQDSKDSTYSLSSTLTLSKADYEKHKVYACEVTHQGLSSPVTKSFNRGEC
B5: CD98hc.05.166 (2+1 bispecific antibody) (bispecific antibody)
heavy 1: EVRLLESGGGLVQPGGSLRLSCAASGFTFSNYAMGWVRQAPGKGLEWVSAISGSGGSTYYADSVKGRFTTSRDDSKNALYLQMNSLRAEDTAVYYCARGGPGWYAADVWGQGTTVTVSSASTKGPSVFPLAPSSKSTSGGTAALGCLVKDYFPEPVTVSWNSGALTSGVHTFPAVLQSSGLYSLSSVVTVPSSSLGTQTYICNVNHKPSNTKVDKKV[here human IgG1 Fc with changes without letters]GGGGSGGGGSGGGGSEVQLLQSGAELVKPGASVKLSCTASGFNILDTYIHWVMQRPEQGLEWIGRIDPANGHVKYDPKFQGKATITADTSSNTAYLQLSSLTSEDTAVYYCASPFTTVVATNIYYYGLGYWGHGTSVTVSSGGSEGKSSGSGSESKSTGGSDIVMTQSHKFMSTSLGDRVSITCKASQGVFTAVAWYQQKPGQSPKLLIYSASYRYTGVPDRFTGSGSGTDFTFTISSVQAEDLAVYYCQQHYSTPWTFGGGTKLEIK
heavy 2: EVRLLESGGGLVQPGGSLRLSCAASGFTFSNYAMGWVRQAPGKGLEWVSAISGSGGSTYYADSVKGRFTTSRDDSKNALYLQMNSLRAEDTAVYYCARGGPGWYAADVWGQGTTVTVSS[here human IgG1 constant region with changes without letters]
light: DIQMTQSPSSLSASVGDRVTITCRASQSISSYLNWYQQKPGKAPKLLIYAASSLQSGVPSRFSGSGSGTDFTLTISSLQPEDFATYYCQQADLPAFAFGGGTKVEIKRTVAAPSVFIFPPSDEQLKSGTASVVCLLNNFYPREAKVQWKVDNALQSGNSQESVTEQDSKDSTYSLSSTLTLSKADYEKHKVYACEVTHQGLSSPVTKSFNRGEC

How the values were obtained:
[1] = target: T1, huCD98hc ECD Avi-His; assay: ELISA, 1-30 ug/mL
[2] = target: T2, Cyno CD98hc ECD Avi-His; assay: ELISA, 1-30 ug/mL
[3] = target: T3, cyno TfR AVI-His (cyno, UniProt H9EXL1 89-760 (rhesus entry)); assay: ELISA, 1-30 ug/mL
T3 construct: control protein

[4] = target: T1, huCD98hc ECD Avi-His; assay: SPR, Carterra LSA, antibody immobilized
[5] = target: T2, Cyno CD98hc ECD Avi-His; assay: SPR, Carterra LSA, antibody immobilized

Binder	ELISA ratio to 2nd only [1]	ELISA ratio to 2nd only [2]	ELISA ratio to 2nd only [3]	Kd [4]	Kd [5]
B1	36	14	1	0.0075 µM	0.023 µM
B2	38	31	1	0.0031 µM	0.0038 µM
B3	27	19	1	0.013 µM	0.0041 µM
B4	24	6	1	0.015 µM	0.063 µM
B5	31	4	1	0.0091 µM	0.039 µM
